Experimental data as given in paper PMC11015131.
Substitutions are numbered along the chain they refer to. No constants are given. Whether binding was seen depends on the method and setting. In cells and extracts the contact can be indirect. Some results given as binding are weak or reduced against the parent protein; the word gives no strength. Tags and fused reporters may be left off the sequences shown.

T1: Mrh5^E262A-Myc (S. pombe) (UniProt O74356)
T1 sequence: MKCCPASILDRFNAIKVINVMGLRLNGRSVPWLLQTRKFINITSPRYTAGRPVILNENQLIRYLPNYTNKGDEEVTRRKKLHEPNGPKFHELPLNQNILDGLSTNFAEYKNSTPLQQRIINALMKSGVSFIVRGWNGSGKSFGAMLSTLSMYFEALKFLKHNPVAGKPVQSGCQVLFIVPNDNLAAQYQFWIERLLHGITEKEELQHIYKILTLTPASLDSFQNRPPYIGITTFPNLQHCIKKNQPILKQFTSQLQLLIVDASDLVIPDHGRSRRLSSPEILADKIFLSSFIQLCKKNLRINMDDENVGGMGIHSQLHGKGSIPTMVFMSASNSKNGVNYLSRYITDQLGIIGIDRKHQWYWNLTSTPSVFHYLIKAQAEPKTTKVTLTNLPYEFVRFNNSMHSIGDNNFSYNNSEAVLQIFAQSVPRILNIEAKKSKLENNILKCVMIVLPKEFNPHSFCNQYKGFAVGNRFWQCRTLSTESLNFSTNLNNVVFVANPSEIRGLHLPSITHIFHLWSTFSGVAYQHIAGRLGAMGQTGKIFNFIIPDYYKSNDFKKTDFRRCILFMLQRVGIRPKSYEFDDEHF

T2: Mrh5-Myc (mrh5-Myc integrated at the leu1-32 locus of the Δmrh5 strain) (S. pombe) (UniProt O74356)
T2 sequence: T1 sequence with A262E

T3: Mrh5^D261A-Myc (S. pombe) (UniProt O74356)
T3 sequence: T1 sequence with D261A, A262E

T4: Mrh5-Myc (endogenously tagged DEAD-box protein Mrh5) (S. pombe) (UniProt O74356)
T4 sequence: T1 sequence with A262E

T5: Sls1-FLAG (endogenously tagged Sls1) (S. pombe) (UniProt Q9UT03)
T5 sequence: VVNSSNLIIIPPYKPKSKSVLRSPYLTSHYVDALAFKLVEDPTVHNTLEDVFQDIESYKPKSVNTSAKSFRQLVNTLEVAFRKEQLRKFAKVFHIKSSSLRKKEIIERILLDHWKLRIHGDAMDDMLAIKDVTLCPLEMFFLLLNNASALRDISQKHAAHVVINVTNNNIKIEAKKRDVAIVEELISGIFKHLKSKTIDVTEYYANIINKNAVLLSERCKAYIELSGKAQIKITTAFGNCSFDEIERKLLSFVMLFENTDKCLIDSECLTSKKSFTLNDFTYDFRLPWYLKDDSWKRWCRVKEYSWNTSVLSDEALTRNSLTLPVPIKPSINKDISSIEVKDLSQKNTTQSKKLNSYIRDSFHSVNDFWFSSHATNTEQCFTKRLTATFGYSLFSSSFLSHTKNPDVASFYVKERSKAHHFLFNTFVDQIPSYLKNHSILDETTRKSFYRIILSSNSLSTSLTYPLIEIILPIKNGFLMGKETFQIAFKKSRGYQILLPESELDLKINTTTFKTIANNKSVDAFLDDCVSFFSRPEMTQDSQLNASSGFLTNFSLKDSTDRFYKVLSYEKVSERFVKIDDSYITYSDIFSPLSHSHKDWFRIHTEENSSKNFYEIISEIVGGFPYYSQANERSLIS

B1: Mtf2-HA (endogenously tagged Mtf2) (protein, UniProt O14204 1-314)
chain: MRVCRTLKISIKSFPSSLSLLSLYKRRLHKSTSHSSTATSSHYSKNNLPSDSPDLLFDYFIDGHKIHVNPNAVEPLHLRRNADVVGFSLPHGVKQSFENYIQKYPLSDQVENSSNIYDPSSPPDSPRKQQTHLGTIPPEHPDVFFHNLKKKLDSLHTHSSPLTVYRNHLLTCETDSALAQLFKSEIYQQLSDFRRDFPLSHALRDTMLIARLNFLNPMLALSFFQAVKKHSPNAYVRGCSAPVYNQAILSVWQGCKDPNFVLHLLGEMRENVVMRDSETREAINIVYKDVNEWPKQLLFSQNRILEKLKIFLLP
B2: Sls1-HA (endogenously tagged Sls1) (protein, UniProt Q9UT03 42-677)
chain: T5 sequence
B3: Ppr4-HA (endogenously tagged Ppr4) (protein, UniProt O14275 17-931)
chain: NTPLLWFPQPLKYWPAFQQSHTFNSMSVFKNDNAIANQTTVNESDVKRNVEKINDIYECSNNTKSPCFPNSDSRIPLVNWKTSTNPTLQVRAYMLDLLLPFFTLDLLPFLNKVCECCNHMLLDNPKIKQDLPFAFCYLFSSYFSYKSSRQYTCSSEEISKVFRHLNRLGGSEYVLHLFAQIPKALCKELTDVRTLNHPLRSIFTFCFKNISNPPNLLKLLTKLYPRSDRANEVLYTQYLGFLTKRGDYQIAIYMFDEMYRTHHWSSFTACRLMIESLVRQNKFEEAISLYKKIIAKRPKIARDKKILNLLLYISTVSNRSPDAFKLALQSISNANQIPSFDVFSRLMSALVKYNMTEMILPLVKQYDHKFRNLYSPNIFLSIVQALVFCGDMVNIQRWYNMSRVNSELSRIKHLLNCFLNSSTVSLDVSMVLELLRDLKKKKIKVDERTLVICITIFSRRKDLFAMEKIHQYFSDQGIKTSNQAYAALLDAYIEAEDTEKIELYLGKIRRLGITEDVSINRMLMRLALDRLDWDLLEQCTKVAERKDPEGQDYLSTITMLYHVRQHELNLALRIFSGIQKPNVVHYSIAATVLGNLNQLDQLLLLEKRMESEGKAPTALSLVAFVSSYCKQGAEGLDEAKRYMSKNFQPDKRALLFNPRTANDMTYPPSLFSSLIKEYTSLGDIKEAKQVLSTYLEYFSKNITSKPDIPFAIASMRLYCSLHDTVLSRQFWDLILQVAQQNFITTDIAAVVDDKNIPSPSGVIPAYKSALNVAAETYFSFLASVNSFQELDQEWSRLEKLGFEYDDSLQNKRIIWLLYDDRLDAAIKRVYNIFLSSKRIEELIPDASSQNSIISFFLSPDSPLYFSTLKALRDKLDMAVEDDFVRISQGILVPTVKYLQTIRRDNEILFNLLAKV

Experiments:
[1] = target: T1, Mrh5^E262A-Myc (S. pombe); experiment: co-IP; anti-Myc co-immunoprecipitation; mitochondrial extracts of Δmrh5 cells with integrated mrh5-Myc, mrh5^D261A-Myc or mrh5^E262A-Myc and Mtf2-HA, Sls1-HA or Ppr4-HA; immunoblot with anti-Myc and anti-HA Abs
[2] = target: T2, Mrh5-Myc (mrh5-Myc integrated at the leu1-32 locus of the Δmrh5 strain) (S. pombe); experiment: as above
[3] = target: T3, Mrh5^D261A-Myc (S. pombe); experiment: as above
[4] = target: T4, Mrh5-Myc (endogenously tagged DEAD-box protein Mrh5) (S. pombe); experiment: co-IP; anti-Myc beads, Mrh5-Myc as bait; mitochondrial extracts of WT cells with endogenously tagged subunits; immunoblot
[5] = target: T5, Sls1-FLAG (endogenously tagged Sls1) (S. pombe); experiment: co-IP; anti-FLAG beads, Sls1-FLAG as bait; mitochondrial extracts of WT, Δmrh5, Δppr4 and Δmrh5Δppr4 cells with endogenously tagged subunits; immunoblot with anti-tag Abs

Binder	binding [1]	binding [2]	binding [3]	binding [4]	binding [5]
B1	no binding	binds	no binding	binds	binds
B2	no binding	–	no binding	–	–
B3	no binding	–	no binding	–	–
